Measured values reported in publication PMC5290273 (Nature Communications, 2017).
Results are given in words; binding and its absence hold for the method and conditions named. In cells and extracts the contact can be indirect. Some entries that bind do so weakly or less than the wild type. For some of these results: Tags and fused reporters may be left off the sequences shown.

The chains behind the UniProt entries cited, without tags or fusion partners.
UniProt O00472: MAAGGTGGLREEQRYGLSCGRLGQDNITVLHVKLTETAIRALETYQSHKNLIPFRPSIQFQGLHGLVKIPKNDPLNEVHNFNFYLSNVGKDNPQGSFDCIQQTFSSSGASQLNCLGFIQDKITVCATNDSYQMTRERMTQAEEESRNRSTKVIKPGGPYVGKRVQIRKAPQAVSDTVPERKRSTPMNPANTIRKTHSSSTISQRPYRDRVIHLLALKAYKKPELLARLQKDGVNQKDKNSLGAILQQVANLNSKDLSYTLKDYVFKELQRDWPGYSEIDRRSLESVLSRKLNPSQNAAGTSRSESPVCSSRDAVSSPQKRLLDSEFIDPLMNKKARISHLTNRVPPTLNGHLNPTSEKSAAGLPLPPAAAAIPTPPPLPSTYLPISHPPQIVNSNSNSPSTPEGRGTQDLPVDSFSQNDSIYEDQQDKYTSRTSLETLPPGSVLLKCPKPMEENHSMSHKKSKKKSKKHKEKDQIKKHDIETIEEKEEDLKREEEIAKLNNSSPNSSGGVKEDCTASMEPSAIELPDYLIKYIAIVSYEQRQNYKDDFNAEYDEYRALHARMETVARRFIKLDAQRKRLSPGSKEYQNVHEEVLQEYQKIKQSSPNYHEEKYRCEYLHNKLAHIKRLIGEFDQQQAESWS

Columns and labels:
Test in all cases: co-IP
[1] = target: T1, FLAG-AFF4 Δ970–1,163 I334D (human) (UniProt Q9UHB7)
T1 sequence: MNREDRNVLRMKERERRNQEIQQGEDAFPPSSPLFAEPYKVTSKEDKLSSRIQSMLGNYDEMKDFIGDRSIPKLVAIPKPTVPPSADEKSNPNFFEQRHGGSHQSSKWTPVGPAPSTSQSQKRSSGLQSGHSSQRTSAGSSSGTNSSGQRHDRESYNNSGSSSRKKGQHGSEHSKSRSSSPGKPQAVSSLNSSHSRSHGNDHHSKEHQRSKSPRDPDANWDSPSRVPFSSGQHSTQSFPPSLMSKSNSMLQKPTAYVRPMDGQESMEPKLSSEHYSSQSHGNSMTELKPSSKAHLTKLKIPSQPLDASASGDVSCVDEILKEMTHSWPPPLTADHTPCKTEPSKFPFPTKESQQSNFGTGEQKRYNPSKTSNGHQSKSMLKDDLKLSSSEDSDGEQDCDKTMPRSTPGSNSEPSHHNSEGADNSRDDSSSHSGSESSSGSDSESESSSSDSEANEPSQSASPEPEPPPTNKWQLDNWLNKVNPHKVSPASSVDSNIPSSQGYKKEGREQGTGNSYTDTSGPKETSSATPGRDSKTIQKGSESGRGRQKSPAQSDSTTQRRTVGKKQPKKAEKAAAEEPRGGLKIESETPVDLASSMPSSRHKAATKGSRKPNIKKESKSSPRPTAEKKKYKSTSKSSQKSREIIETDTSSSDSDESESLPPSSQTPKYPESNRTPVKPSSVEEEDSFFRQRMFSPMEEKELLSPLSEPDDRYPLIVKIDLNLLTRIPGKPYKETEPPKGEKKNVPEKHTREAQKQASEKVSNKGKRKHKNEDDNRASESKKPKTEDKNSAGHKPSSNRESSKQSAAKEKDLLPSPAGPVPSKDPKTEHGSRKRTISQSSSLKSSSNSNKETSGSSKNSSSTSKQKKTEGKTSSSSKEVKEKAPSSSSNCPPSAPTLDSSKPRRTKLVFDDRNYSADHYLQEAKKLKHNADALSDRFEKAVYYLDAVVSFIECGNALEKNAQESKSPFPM

[2] = target: T2, FLAG-AFF4 Δ970–1,163 P329G (human) (UniProt Q9UHB7)
T2 sequence: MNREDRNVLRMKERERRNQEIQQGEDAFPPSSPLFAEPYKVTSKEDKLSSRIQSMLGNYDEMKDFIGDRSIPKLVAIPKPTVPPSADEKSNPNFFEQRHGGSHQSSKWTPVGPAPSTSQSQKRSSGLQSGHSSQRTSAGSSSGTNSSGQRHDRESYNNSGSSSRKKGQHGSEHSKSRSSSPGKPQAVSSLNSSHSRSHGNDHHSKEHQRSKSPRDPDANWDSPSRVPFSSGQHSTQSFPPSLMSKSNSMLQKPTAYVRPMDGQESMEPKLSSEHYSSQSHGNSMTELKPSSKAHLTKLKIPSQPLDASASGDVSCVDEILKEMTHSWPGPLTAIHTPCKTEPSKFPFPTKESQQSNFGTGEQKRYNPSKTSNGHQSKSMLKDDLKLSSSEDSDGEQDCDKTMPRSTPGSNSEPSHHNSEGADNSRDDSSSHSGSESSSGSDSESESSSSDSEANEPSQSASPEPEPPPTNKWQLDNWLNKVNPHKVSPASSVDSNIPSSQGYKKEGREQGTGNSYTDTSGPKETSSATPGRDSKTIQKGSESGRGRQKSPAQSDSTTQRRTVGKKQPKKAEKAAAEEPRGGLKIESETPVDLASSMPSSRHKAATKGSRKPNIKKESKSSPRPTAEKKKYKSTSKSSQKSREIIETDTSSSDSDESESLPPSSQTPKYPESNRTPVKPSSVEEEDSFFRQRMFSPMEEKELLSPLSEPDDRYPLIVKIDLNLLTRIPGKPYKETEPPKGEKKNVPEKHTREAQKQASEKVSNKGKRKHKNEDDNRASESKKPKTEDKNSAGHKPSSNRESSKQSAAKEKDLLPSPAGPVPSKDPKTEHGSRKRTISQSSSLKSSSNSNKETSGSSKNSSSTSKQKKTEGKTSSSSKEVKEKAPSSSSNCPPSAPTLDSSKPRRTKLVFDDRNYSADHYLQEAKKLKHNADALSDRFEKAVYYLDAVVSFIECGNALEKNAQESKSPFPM

[3] = target: HA-tagged wild-type ELL2 (human) (UniProt O00472)
[4] = target: T3, FLAG-AFF4 Δ970–1,163 L320D (human) (UniProt Q9UHB7)
T3 sequence: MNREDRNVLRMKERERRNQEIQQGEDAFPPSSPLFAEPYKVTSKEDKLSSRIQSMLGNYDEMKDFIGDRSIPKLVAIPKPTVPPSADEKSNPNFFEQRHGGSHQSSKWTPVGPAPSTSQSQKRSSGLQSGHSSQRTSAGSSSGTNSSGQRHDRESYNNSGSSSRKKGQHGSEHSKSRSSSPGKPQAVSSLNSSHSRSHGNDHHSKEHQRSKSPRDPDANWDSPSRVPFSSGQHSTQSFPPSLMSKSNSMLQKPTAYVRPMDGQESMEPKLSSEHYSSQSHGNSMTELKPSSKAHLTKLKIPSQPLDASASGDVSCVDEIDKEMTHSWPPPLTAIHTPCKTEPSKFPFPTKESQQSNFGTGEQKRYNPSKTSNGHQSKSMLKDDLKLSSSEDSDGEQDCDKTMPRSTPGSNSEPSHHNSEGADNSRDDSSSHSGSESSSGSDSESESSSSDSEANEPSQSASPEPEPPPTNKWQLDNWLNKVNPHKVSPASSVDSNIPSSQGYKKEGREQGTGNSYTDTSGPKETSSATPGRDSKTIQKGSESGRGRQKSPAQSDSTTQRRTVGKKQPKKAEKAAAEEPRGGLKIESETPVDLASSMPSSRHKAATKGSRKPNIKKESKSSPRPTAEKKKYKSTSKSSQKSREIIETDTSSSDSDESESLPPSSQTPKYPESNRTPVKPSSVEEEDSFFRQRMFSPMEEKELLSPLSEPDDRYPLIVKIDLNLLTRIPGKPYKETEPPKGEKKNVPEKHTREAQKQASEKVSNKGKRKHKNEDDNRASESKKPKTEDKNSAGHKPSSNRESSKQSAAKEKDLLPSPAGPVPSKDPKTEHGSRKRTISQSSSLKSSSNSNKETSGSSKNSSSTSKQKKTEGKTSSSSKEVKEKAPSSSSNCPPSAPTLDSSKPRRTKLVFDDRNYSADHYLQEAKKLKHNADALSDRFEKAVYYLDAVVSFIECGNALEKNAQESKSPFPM

binding [1]: no binding
binding [2]: no binding
binding [3]: binds
binding [4]: no binding
B1: ELL1, endogenous (protein, UniProt P55199 1-621)
chain: MAALKEDRSYGLSCGRVSDGSKVSVFHVKLTDSALRAFESYRARQDSVSLRPSIRFQGSQGHISIPQPDCPAEARTFSFYLSNIGRDNPQGSFDCIQQYVSSHGEVHLDCLGSIQDKITVCATDDSYQKARQSMAQAEEETRSRSAIVIKAGGRYLGKKVQFRKPAPGATDAVPSRKRATPINLASAIRKSGASAVSGGSGVSQRPFRDRVLHLLALRPYRKAELLLRLQKDGLTQADKDALDGLLQQVANMSAKDGTCTLQDCMYKDVQKDWPGYSEGDQQLLKRVLVRKLCQPQSTGSLLGDPAASSPPGERGRSASPPQKRLQPPDFIDPLANKKPRISHFTQRAQPAVNGKLGVPNGREALLPTPGPPASTDTLSSSTHLPPRLEPPRAHDPLADVSNDLGHSGRDCEHGEAAAPAPTVRLGLPLLTDCAQPSRPHGSPSRSKPKKKSKKHKDKERAAEDKPRAQLPDCAPATHATPGAPADTPGLNGTCSVSSVPTSTSETPDYLLKYAAISSSEQRQSYKNDFNAEYSEYRDLHARIERITRRFTQLDAQLRQLSQGSEEYETTRGQILQEYRKIKKTNTNYSQEKHRCEYLHSKLAHIKRLIAEYDQRQLQAWP
